Measurements from the supplement of paper PMC3334620.
The full ranking holds about 33,000 sequences; the median of “E-score (-0.5 to 0.5)” is about -0.056, and the highest 2% start at about 0.38. This is one part of the list.

Target: Stb4 (UniProt P50104)
Test: PBM E-score (8-mer binding enrichment) (E-score (-0.5 to 0.5)); higher = stronger / more preferred TF binding; most listed sequences are background and not binding sites
Conditions: protein concentration: 200 nM; construct: GST-DNA-binding domain
Outline: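 Universal all-10-mer Agilent arrays, fresh or stripped once, were converted to double-stranded form by primer extension. GST-tagged yeast transcription factors from PURExpress in vitro transcription/translation, full-length or DNA-binding domain only, were applied at about 100-200 nM and detected with fluorescent anti-GST. After masliner normalisation, the Universal PBM Analysis Suite scored each ungapped eight-base word together with its reverse complement by E-score.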

Row | Sequence | PBM E-score
1 | CATTGAGC | -0.241
2 | ACGGTCCT | -0.143
3 | CGAAGAGC | 0.244
4 | CGATCTTA | -0.0848
5 | TTACGGAA | 0.365
6 | CCGCGTAA | 0.0987
7 | ATGCGCTA | -0.259
8 | CTTAAGAC | -0.177
9 | AGTTGCCC | -0.00828
10 | GGGAAAAA | 0.241
11 | AGCCCACC | 0.044
12 | ACATTGAT | 0.0749
13 | CGAGGAGA | -0.0149
14 | ACAGCGCG | -0.0549
15 | ATCTGTGC | -0.169
16 | AGGAAGTC | -0.19
17 | AAGGCAAG | -0.22
18 | GCCCGACC | 0.168
19 | AGTAATGA | -0.159
20 | CGCGCCTC | 0.0642
21 | AGTAGATA | -0.0337
22 | AAGTCAGT | 0.0161
23 | ACACCAAA | -0.0937
24 | GCTGGAAC | -0.0614

Row | Sequence | PBM E-score
25 | GCACGTGC | -0.0618
26 | CGGATTCC | 0.359
27 | AGGTAACC | -0.0271
28 | GAGGGCGA | -0.114
29 | CTGATTCC | 0.014
30 | CAGAGGTC | -0.194
31 | CACGCCAC | -0.205
32 | AAGCACGA | -0.0932
33 | AAAACAAA | 0.113
34 | CGTCACGC | -0.0645
35 | CCCGATCC | 0.313
36 | GCATTTAC | -0.0832
37 | AATAGTTG | -0.0512
38 | CCAAACGC | -0.135
39 | TGGGTAAA | -0.0511
40 | ACGTTGTG | -0.168
41 | CGGCGACA | 0.124
42 | AATGGGAG | -0.215
43 | GACTCCGA | 0.321
44 | GAGAAATC | 0.0628
45 | ACGTCTCC | -0.125
46 | ATCTTTGA | -0.104
47 | GCCGACAA | 0.299
48 | AAGCCCGT | -0.0399

Row | Sequence | PBM E-score
49 | GTCTTGAA | 0.0554
50 | AAGACTAG | -0.209
51 | CTTCAGCA | -0.285
52 | TAAAAACA | -0.0863
53 | ACCCGATG | 0.399
54 | GCACAGCC | 0.141
55 | GTTCCAAA | -0.0427
56 | CTAGGGTA | -0.143
57 | ACCTCGAC | -0.156
58 | AATAGCAG | -0.2
59 | AATCGGTG | -0.0308
60 | ATTCTATC | -0.168
61 | AGGACACC | -0.0973
62 | GATCATGC | 0.0103
63 | AGGTGGGA | -0.168
64 | AATAAACA | 0.00831
65 | ACCGCTGA | -0.167
66 | GGCATATA | 0.141
67 | GCACCTTA | -0.163
68 | CAGGATTC | -0.0796
69 | CGCGAAGC | 0.103
70 | CGATCACG | 0.0774
71 | CGGCCACG | -0.024
72 | ACAGTCTC | -0.148

Row | Sequence | PBM E-score
73 | AGCGCAGG | -0.0828
74 | ACTTAGAG | -0.281
75 | CGGACTAC | 0.154
76 | CAGCAGGC | 0.00903
77 | AGCCGGTG | 0.226
78 | CTCGCAGA | -0.261
79 | ATCCTACC | 0.04
80 | ACGTCCAT | -0.199
81 | GAGGGTAC | -0.235
82 | AGGTGATC | -0.159
83 | GGAATTGA | 0.135
84 | ACTAATGA | -0.0311
85 | GGGTTACA | 0.0753
86 | ACGTATTA | 0.0772
87 | CACTCGTA | -0.292
88 | TCCGCTCA | 0.0169
89 | ATTGAAAC | -0.16
90 | CCCAGTCA | -0.282
91 | CCGGATCC | 0.395
92 | ACCTGAAA | -0.0945
93 | AAGGGAGC | -0.0979
94 | ACTTCCGG | 0.411
